In all, about 33,000 sequences were measured (“E-score (-0.5 to 0.5)”: median about -0.036, highest 2% from about 0.37 on). The list shows a part of the results.
Target: T1, Yer064c (UniProt P40041)
T1 sequence: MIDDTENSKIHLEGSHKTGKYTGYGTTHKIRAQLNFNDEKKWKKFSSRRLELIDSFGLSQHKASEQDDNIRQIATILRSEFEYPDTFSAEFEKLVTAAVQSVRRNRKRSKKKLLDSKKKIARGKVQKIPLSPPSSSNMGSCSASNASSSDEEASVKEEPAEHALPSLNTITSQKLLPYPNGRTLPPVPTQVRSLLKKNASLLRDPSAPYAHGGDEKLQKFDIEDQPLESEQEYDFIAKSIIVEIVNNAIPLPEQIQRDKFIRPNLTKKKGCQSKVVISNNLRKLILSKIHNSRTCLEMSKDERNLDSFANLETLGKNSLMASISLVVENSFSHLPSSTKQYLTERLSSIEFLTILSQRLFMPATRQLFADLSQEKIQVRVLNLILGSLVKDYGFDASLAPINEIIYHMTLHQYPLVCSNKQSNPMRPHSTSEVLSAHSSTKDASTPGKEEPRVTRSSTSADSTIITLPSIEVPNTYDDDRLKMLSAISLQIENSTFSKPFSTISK
Test: PBM E-score (8-mer binding enrichment) (E-score (-0.5 to 0.5)); higher = stronger / more preferred TF binding; most listed sequences are background and not binding sites
Settings: protein concentration: 200 nM; construct: GST-full length
Summary of the method: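 Yeast transcription factors, full-length or as DNA-binding domains, were expressed with a GST tag using PURExpress in vitro transcription/translation. At about 100-200 nM they were applied to universal all-10-mer Agilent arrays, double-stranded by primer extension on fresh or once-stripped slides. Fluorescent anti-GST detected bound protein, and masliner normalised the scans. E-scores for ungapped eight-base words, pooled with reverse complements, came from the Universal PBM Analysis Suite.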

Row | Sequence | PBM E-score
1 | AGTGTGAA | 0.00721
2 | AAAGAGAC | 0.207
3 | ATGCATCG | 0.0512
4 | ACGGCGAC | -0.0704
5 | AATTTAGG | 0.0377
6 | AAGCATAA | -0.156
7 | ACTCCGGC | 0.0223
8 | GATGCTAA | -0.0719
9 | ATCGTAGC | -0.00313
10 | GACAACTA | 0.0328
11 | CGTAGGCC | -0.213
12 | GCCCTCGA | -0.143
13 | AGCGTATC | -0.202
14 | ACGAGCCT | -0.11
15 | CTACCCTC | -0.0486
16 | ACCAGCAA | 0.0287
17 | AGCTAGAC | -0.19
18 | GATTGGCA | 0.00543
19 | TCAATCCA | 0.0873
20 | GCACCCAA | -0.168
21 | ATGGGTTG | 0.0482
22 | CTAAGCAG | 0.122
23 | GTCATGTA | 0.259
24 | GCGATCAA | 0.0568
25 | ATGAGATA | 0.0605

Row | Sequence | PBM E-score
26 | CCGGTCCG | 0.0504
27 | TCCGAGGA | 0.0764
28 | CCCGTCTC | -0.27
29 | GGACTTAC | 0.0485
30 | CTAGTCGC | 0.316
31 | CTAGACAA | -0.0709
32 | CAGGAACA | -0.157
33 | ACAGCAAG | -0.259
34 | ACGGCCCC | -0.194
35 | AGGGGGGC | -0.351
36 | GAAGCGGC | -0.368
37 | AACTAGCC | -0.154
38 | GACGTGAA | 0.00076
39 | ATTTACAA | 0.107
40 | ATAACTTG | 0.0525
41 | TCCGTCAA | -0.0923
42 | AATAACCG | -0.0174
43 | AATTTCAG | 0.0274
44 | CCTTGCCC | -0.195
45 | AAAACTTA | 0.118
46 | AGCCAAGG | 0.0335
47 | TACATATA | 0.0992
48 | TCACAGGA | 0.0693
49 | CCATCTTC | 0.0581
50 | TGTTGTAA | 0.06

Row | Sequence | PBM E-score
51 | AGACTAGA | 0.276
52 | ACACCAAC | -0.0121
53 | GGTCCGAA | 0.0476
54 | ACGCTACA | -0.115
55 | GCGGAACC | -0.0134
56 | CAACGTGA | 0.102
57 | CCGCGCCG | -0.274
58 | CCCGAGTC | 0.329
59 | ATGATGCG | 0.128
60 | TACGTTCA | -0.0621
61 | CACACCAC | 0.091
62 | AATCCTTC | -0.0208
63 | ATGCGCGG | -0.268
64 | AAACTGCG | -0.212
65 | GTTTGTTA | 0.052
66 | ATTGATCG | -0.0674
67 | ATGGCAGA | -0.129
68 | CACGTACG | -0.0537
69 | AGACGGTC | -0.274
70 | TGAGAGAA | -0.00978
71 | ATAGCGAA | 0.126
72 | GTCACAGA | 0.237
73 | CAACTCGC | 0.0528
74 | CCCTCTAA | -0.0587
75 | ACCTAGAT | -0.19

Row | Sequence | PBM E-score
76 | CGTCCGTA | 0.0167
77 | CAACAATC | 0.117
78 | CTTGTCCA | 0.0431
79 | CTTATTTA | 0.074
80 | TAGGCCGA | -0.14
81 | GCACCGGA | -0.24
82 | CCAATACC | -0.227
83 | AAAAGGTC | -0.0734
84 | CAACATGC | -0.0143
85 | CTGTTTTA | 0.0684
86 | CGAGTGGA | -0.0321
87 | CGGCGCGC | -0.0871
88 | ATCCAAAC | 0.00765
89 | AGATTCAC | 0.291
90 | AACCAGCC | 0.141
91 | ACGTGTTC | -0.0863
92 | TACGCTAA | 0.0764
93 | TATATGGA | 0.105
94 | CAAAAAAA | 0.123
95 | CATCAGCG | 0.138
96 | AGTTCCAC | -0.0556
97 | ACCTTCCT | -0.248
98 | CCGTAGAC | -0.0459
99 | AACCCCTC | -0.221
100 | CAATAACG | -0.0089

Row | Sequence | PBM E-score
101 | CCCGATAA | 0.0733
102 | TCTGTGAA | 0.13
103 | CCAAGTGG | 0.0141
104 | TATATTCA | 0.0968
105 | GTATTGCA | -0.0498
106 | CGCTCGGA | -0.0666
107 | CAGTTATA | 0.0662
108 | TAGTACCA | -0.0385
109 | AGTCGACG | 0.303
110 | AGAGCACC | -0.336
111 | TGGCGCAA | -0.15
112 | GCCGTGAA | -0.0403
113 | ATTAACTC | 0.255
114 | GGTGTCTA | 0.125
115 | GGGTGAAA | 0.0843
116 | AGATTAAG | 0.245
117 | AGGGTAGC | -0.211
118 | AGCCGAGC | -0.149
119 | ATATCTCG | -0.225
120 | CATGCGTC | 0.0649
121 | CGGTATGA | 0.205
122 | GAGCGTCA | -0.0316
123 | GAGCGAAC | 0.132
124 | TCAATACA | 0.0716
125 | ATAACACC | -0.0883

Row | Sequence | PBM E-score
126 | GTGTGCTA | -0.0763
127 | AGCGAGTG | 0.0737
128 | AATGAAAG | -0.0138
129 | AAGAGTCA | 0.489
130 | CCTAGAGG | -0.175
131 | AAGTTACT | 0.237
132 | GTTGACCA | 0.00753
133 | ACTATACC | 0.0601
134 | CGTACGGA | -0.0695
135 | ATAAGCAG | -0.0252
136 | ACCCGGGC | -0.0621
137 | CGCGCGCA | -0.0205
138 | ATCCTCGC | -0.043
139 | GCACGTCC | -0.279
140 | AACGGGAC | -0.167
141 | TGTTCTAA | -0.131
142 | CACCCCGA | 0.0217
143 | ACGAGAAG | -0.128
144 | GTAGGATA | -0.0167
145 | CTAGTACC | -0.00175
146 | TAAGCATA | -0.0649
147 | ATGAAGTC | 0.281
148 | AATCCACG | -0.0812
149 | AAATGGTT | 0.194
150 | AATATAAC | -0.0931

Row | Sequence | PBM E-score
151 | CGCCCGAC | -0.0703
152 | ATGGGCCA | -0.207
153 | CAGTCCAA | 0.0519
154 | ACACGAGA | -0.115
155 | ACCGAAAG | -0.0221
156 | CATACTCG | -0.024
157 | AGACAGCA | -0.00915
158 | TACTACAA | 0.119
159 | AAGTGTTA | -0.0254
160 | ACATAAAC | 0.0827
161 | AGCGGACA | -0.188
162 | ATTAACGC | 0.00813
163 | TCGCCAGA | 0.102
164 | AATAAACC | 0.0322
165 | CTACTCGA | 0.211
166 | AATTAGCA | 0.00425
167 | TCACCGAA | 0.218
168 | ACGTGATA | -0.115
169 | AAAAAAGA | 0.00554
170 | CCTGGACA | -0.127
171 | GTGGTGAA | -0.0751
172 | TGCAACCA | -0.0203
